# Measured values published in the supplement of paper PMC11417369.
# This is one part of the list.
# System: PfSIP2 AP2 domain 1 (GST-tagged)
# Experiment: gcPBM binding intensity (ln(normalized median fluorescence intensity)); higher = stronger DNA binding
# In short: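 DNA-binding domains from P. falciparum, fused to GST and produced in E. coli, were put on an Agilent 4 × 180k double-stranded probe array for 1 h in 1× PBS holding 1% milk, 0.2 mg/ml BSA, 0.5% salmon testes DNA and 0.03% Triton X-100. Probes were primer-extended, 36 bp long and drawn from intergenic genomic regions, with negative controls included. After Alexa488 anti-GST antibody detection and a 488 nm scan, binding intensity was set as the highest Masliner-normalised natural-log median intensity across replicate spots of either probe orientation.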
row,Sequence,gcPBM binding intensity (ln)
1,GGAAGATGAAAAATAAAGCATGTGCTGTACAAACGA [CACACA_negctrl_site1625],6.82
2,AAATATTTATATGTTACACACTGTTGATAATTTTCT [CACACA_site1347],6.68
3,AAAAATATTTTGGTTTGTACATATATTTTTACAATA [XGTACX_site8691],7.02
4,ACTTATTTCGATATGTGTACTTAATATATATATTTA [XGTACX_site6616],7.24
5,ATTTTTGTAATTATTTGTACACATTTATTTATGTGT [XGTACX_site1864],7.03
6,AAATATATGAATAAATGTACGAAATGAATGGATGAA [XGTACX_site7108],7.19
7,AAACATGTATTTTATTGTACACATTCATAAATCACA [XGTACX_site1420],7.19
8,TTATAATCTTATATATGTACATATATATATTATTAT [XGTACX_site7780],6.96
9,TACATGTATGTAATATGTTTTATTTTTTTCATCTCT [XGTACX_negctrl_site79],6.7
10,TTAATTAGAAATCATACACACATATATATATATATA [CACACA_site173],9.57
11,CATTCAAACAAAAAAAGTACTCATCACATAATATAT [XGTACX_site1251],7.08
12,GAAATGTACAAATACGTACACACATATATATATATA [CACACA_site1541],9.07
13,AAAAAAAAAAAAAAACTTACGATTTTAAAAAGATGG [GTGCAC_negctrl_site291],7.3
14,TTTATATTGTTTTATTGTACATATATATTTATACAT [XGTACX_site6821],7.16
15,ATATATTTATAATACACATGCAATGATATAATATAT [TGCATGCA_site20],6.87
16,CATATATACATATATACACACATATATATATATATA [CACACA_site645],9.52
17,GTAAGAAAGAAAGGAAGTACGTAAGAAAGTAAGAAC [XGTACX_site1239],7.27
18,GTGTGGTTACAGACACGAACACATTTTTTAAATATT [CACACA_negctrl_site83],6.96
19,TATATATATTATATAGTGCATTGAAGAAGGGGATTT,8.42

row,Sequence,gcPBM binding intensity (ln)
1,TTTTTTTTTCTGTGAGTGCATGTAATAAAATAAATT [GTGCAC_site9740],9.49
2,CATATTTGTTGACACACACACATATTTATATAAATA [CACACA_site7648],7.21
3,TTTATATGTTTAAAATGTACATGTGGTAAAAATTTT [XGTACX_site5907],7.19
4,GGGAGGATATTACACAGTACCCAGAAAATCTACGGA [XGTACX_site2551],6.92
5,TATTCCTTATTATAATTCTTAAATAAAAAAAAAAAA [TGCATGCA_negctrl_site45],7.1
6,CCCATTATTGTTGGGGGTACAATTTTGAATATATAT [XGTACX_site2227],8.04
7,ATATATAAACTGAAGGGTACAATGAAAAAAGAACTT [XGTACX_site7219],7.08
8,TAGGATTTTTAGTTTATTGTAACTATTATTTTATTT [CACACA_negctrl_site829],6.72
9,ATAAATAAAATTAGGTGTACTTTAATTAAAGAAAAT [XGTACX_site3319],7.4
10,TATACATATATAATATGTACATATATTTTTTTTTAA [XGTACX_site2938],6.83
11,CATAAAAATATTTTCTGTACATATTCATATGACGTT [XGTACX_site3406],7.13
12,ATAAATATTGGGTGCACACACATAATATATATATAT [CACACA_site2272],12.2
13,AGGTTCCCAAAATGCACACCAATGAAATTATTTATT [CACACA_site553],7.21
14,AAAATAAAAAATATAACACACAATAAATATATATAT [CACACA_site1926],8.6
15,ATTTCCTGGCTACTGTGTACTGACCTCCAGACTGCT [XGTACX_site2005],6.65
16,TTTTAACTTTTATATTGTACGTTGTTTATTTTATTT [XGTACX_site7504],7
17,GAAAAAAAAAAAAAAAAAAAAAAATTCATTTTTTTT [XGTACX_negctrl_site54],6.88
18,ATAATCATTTGGATATTCACAATATTTAAAATTAAA [CACACA_negctrl_site909],6.86
19,TATACAAAATAACTAGCACACATATGTATAAACATA [CACACA_site9236],6.9

row,Sequence,gcPBM binding intensity (ln)
1,ATATGTATTAAGTGTACACATATAATGTATTTTGTT [CACACA_site4177],7.23
2,TCATAATGAAAACAAGCACACATACATAAAATAAAA [CACACA_site9069],7.01
3,TTATTTACCATCTCTACACACAAAAATTGATGTAGA [CACACA_site2811],6.95
4,TAAATTATATTATGCACACTTAAAAATATATTTAAC [CACACA_site3512],9.01
5,ATATGTAATAATAAATGTACGAAACATTGAACGATG [XGTACX_site1266],7.16
6,TTTTTATATATCACGTGTACATATTTATTTTTACTC [XGTACX_site8049],7.06
7,GAATCATCCAAAATTGCATGCAAGGAAGAAGAAAAA [TGCATGCA_site764],6.87
8,CGTATGAAACATATATGTACTTATAAAAATATAACC [XGTACX_site7539],7.15
9,TTATAAATATAATATTGTACAAAATTTTAACATGTC [XGTACX_site5259],6.97
10,CTTATGTGTATAAGTAGTACTAAATTAAAATAATAT [XGTACX_site2681],7.14
11,AAATCACCTTAAGAACGTACAAACAGAAAAAAATTA [XGTACX_site4623],6.92
12,TTTATTATATTTATATGTACTTATATAATATATGCA [XGTACX_site1906],7.29
13,TGTTTGAATAACAAAAAAAAAAAAAAAATTAAAAAA [CACACA_negctrl_site1332],6.79
14,ATTTTAAATGTTATGCGTACATATTAATCCTACTTA [XGTACX_site1344],7.57
15,TTTTAAAAATCTATATGTACACAATACGTCTATAAA [XGTACX_site5787],7.03
16,AAAAAAAAAAAAAACACACAAACGCTTTTTTTTTTT [CACACA_site686],7.26
17,TATGAAAATGTTCATACACACATAAAAAAAAAAAAA [CACACA_site3236],6.91
18,TACACATACACATACACACGCATAGAAACATACGAA [CACACA_site2137],7.29
